Among all 310,000 compounds or so, about 2,200 (0.71%) showed an effect of 50% or more. Effects have a minus sign here. Some of the results follow.
Target: human ether-à-go-go-related gene (hERG) potassium channel (human, UniProt Q12809)
Experiment: primary screen, population patch clamp on CHO cells stably expressing hERG

Chain of human ether-à-go-go-related gene (hERG) potassium channel (Q12809 whole entry, looked up): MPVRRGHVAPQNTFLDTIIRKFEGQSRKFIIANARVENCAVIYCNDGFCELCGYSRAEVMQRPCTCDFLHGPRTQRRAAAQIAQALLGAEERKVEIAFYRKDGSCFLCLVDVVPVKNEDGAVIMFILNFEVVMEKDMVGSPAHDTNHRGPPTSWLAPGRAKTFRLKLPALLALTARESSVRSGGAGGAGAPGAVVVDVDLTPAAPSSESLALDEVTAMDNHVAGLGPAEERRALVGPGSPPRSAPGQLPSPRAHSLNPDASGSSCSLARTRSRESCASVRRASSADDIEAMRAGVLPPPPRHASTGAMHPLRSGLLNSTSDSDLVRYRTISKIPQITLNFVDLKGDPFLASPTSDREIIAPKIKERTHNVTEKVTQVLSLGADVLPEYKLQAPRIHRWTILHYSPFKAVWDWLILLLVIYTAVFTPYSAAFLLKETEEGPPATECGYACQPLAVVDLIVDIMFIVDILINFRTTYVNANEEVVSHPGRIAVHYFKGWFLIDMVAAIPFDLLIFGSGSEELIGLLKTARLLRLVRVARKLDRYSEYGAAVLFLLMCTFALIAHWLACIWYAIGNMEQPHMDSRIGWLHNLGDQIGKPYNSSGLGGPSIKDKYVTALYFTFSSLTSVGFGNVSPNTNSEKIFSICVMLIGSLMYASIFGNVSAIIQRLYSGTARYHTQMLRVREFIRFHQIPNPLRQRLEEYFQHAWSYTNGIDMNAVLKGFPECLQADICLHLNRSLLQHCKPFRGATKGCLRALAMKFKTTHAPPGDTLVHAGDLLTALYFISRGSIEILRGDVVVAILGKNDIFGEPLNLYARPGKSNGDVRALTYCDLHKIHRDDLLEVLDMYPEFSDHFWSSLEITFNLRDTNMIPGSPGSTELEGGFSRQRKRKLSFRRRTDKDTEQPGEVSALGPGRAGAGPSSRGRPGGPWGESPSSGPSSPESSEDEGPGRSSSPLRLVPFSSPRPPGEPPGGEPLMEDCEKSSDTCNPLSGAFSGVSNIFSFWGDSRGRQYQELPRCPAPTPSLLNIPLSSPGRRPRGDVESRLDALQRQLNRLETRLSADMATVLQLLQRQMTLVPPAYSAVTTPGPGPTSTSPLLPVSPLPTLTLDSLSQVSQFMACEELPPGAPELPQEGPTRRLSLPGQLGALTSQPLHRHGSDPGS

First: CCOCCCNC(=O)C1c2cc(OC)c(OC)cc2C(=O)N2CCCCC12 (centres unmarked)
Second: CCOCCCNC(=O)c1cc2sc(Cl)cc2n1CC
The “hERG current change (%, negative = inhibition) at 1uM” value of the first is higher: 4.39% for the first, -6.73% for the second.

Going from `COC(=O)c1sccc1NC(=O)c1cnc2cc(C)nn2c1C` to `CCOC(=O)NC(=O)c1cn(-c2ccc(OC)cc2)c(=O)[nH]c1=O`, the “hERG current change (%, negative = inhibition) at 1uM” value rises from 3.08% to 10.7%.

First: Cc1ccc(NC(=O)CN2CCc3cc4c(cc3C2)OCCCO4)cc1
Second: Cc1ccc(C(=O)Nc2ccc(CN3CCS(=O)(=O)CC3)cc2)cc1C
The “hERG current change (%, negative = inhibition) at 1uM” value of the first is higher: 10.2% for the first, 3.18% for the second.

First: CCc1nnc(NC(=O)C2=CCN(S(=O)(=O)c3ccc(F)cc3)CC2)s1
Second: O=C(Nc1ccc(F)cc1)c1ccc(S(=O)(=O)N2CCCC2)cc1
The “hERG current change (%, negative = inhibition) at 1uM” value of the first is lower: 9.88% for the first, 12.5% for the second.

Compared with `O=c1[nH]c(/C(Cl)=C/c2cccc(C(F)(F)F)c2)nc2cc(Cl)ccc12`, `COc1ccc(NC(=O)CN(C)C(=O)Cc2c(C)nc3ccccc3c2C)cc1` is higher in “hERG current change (%, negative = inhibition) at 1uM” value: -8.69% for the first, -2.51% for the second.

Compared with `Nc1nc(-c2ccc3c(c2)CCCC3)c(CC(=O)O)s1`, `CCCc1nnc(NC(=O)c2c(O)c3c([nH]c2=O)CCCC3)s1` is lower in “hERG current change (%, negative = inhibition) at 1uM” value: 15.3% for the first, 10.2% for the second.

First: COc1cc(OC)cc(C(=O)Nc2cccc(-c3ccc(N4CCOCC4)nn3)c2)c1
Second: COc1ccc(NC(=S)N2CCC(c3nc4ccccc4o3)CC2)c(OC)c1
The “hERG current change (%, negative = inhibition) at 1uM” value of the first is higher: 15.8% for the first, -0.976% for the second.

Going from `CC1(C)Cc2c(cnn2-c2ccccc2)C(=O)/C1=N\NC(=O)c1ccncc1` to `Cc1ccc(-n2ncc3c2CC(C)(C)CC3NC(=O)Cc2c(C)noc2C)cc1` (centres unmarked), the “hERG current change (%, negative = inhibition) at 1uM” value falls from 6.95% to -6.36%.

Compared with `COc1cccc(N2C(=O)CC(NNC(=O)c3cccs3)C2=O)c1` (centres unmarked), `COc1ccccc1NC(=O)C1=C(C)NC(=O)NC1c1ccco1` (centres unmarked) is higher in “hERG current change (%, negative = inhibition) at 1uM” value: -4.51% for the first, 7.09% for the second.

Compared with `CCCCOC1CC(c2ccc(OCc3ccc(OC)cc3)c(OC)c2)N(C)O1` (centres unmarked), `COc1ccc(N(CC(=O)NCc2cccc(OC)c2)S(=O)(=O)c2c(C)noc2C)cc1` is lower in “hERG current change (%, negative = inhibition) at 1uM” value: 13% for the first, -22.4% for the second.

Compared with `CN(C)c1ccc(/C=C2\C(=O)NC(=O)N(Cc3ccc(F)cc3)C2=O)cc1`, `CCN(CC)C(=O)CSc1nc2ccccc2c(=O)n1CCC(=O)NCc1ccc(F)cc1` is higher in “hERG current change (%, negative = inhibition) at 1uM” value: -1.18% for the first, 0.736% for the second.

First: CCOC(=O)N1CCC(NC(=O)c2ccc3c(c2)N=C(CC)c2ccccc2S3)CC1
Second: CCOC(=O)N1CCN(c2cc(NCCC(=O)O)c3c4c(onc24)-c2ccccc2C3=O)CC1
The “hERG current change (%, negative = inhibition) at 1uM” value of the first is lower: 6.6% for the first, 9.16% for the second.

Going from `O=C(NCC1CCCO1)c1cccc(NS(=O)(=O)c2ccccc2)c1` (centres unmarked) to `NS(=O)(=O)c1ccc(NC(=O)c2ccc3c(c2)CCN3S(=O)(=O)c2ccccc2)cc1`, the “hERG current change (%, negative = inhibition) at 1uM” value rises from 14.9% to 15.3%.

Going from `COc1ccc(N2CCN(C(=O)CCc3ccccc3)CC2)cc1` to `COc1ccc([N+](=O)[O-])cc1C(=O)NC1CCN(Cc2ccccc2)CC1.Cl.O`, the “hERG current change (%, negative = inhibition) at 1uM” value falls from 10.3% to -19.6%.

Compared with `Cc1ccc(C)c(N2CCN(C(=O)CCC(=O)Nc3nnc(CC(C)C)s3)CC2)c1`, `CCN1CCN(c2nc(Nc3cccc(OC)c3)nc(N)c2[N+](=O)[O-])CC1` is lower in “hERG current change (%, negative = inhibition) at 1uM” value: 9.27% for the first, -60.6% for the second.

Going from `CC(=O)Nc1ccc(OC(=O)COc2ccc(Br)cc2)cc1` to `CC(=O)Nc1ccc(S(=O)(=O)N(C)Cc2ccccc2)cc1`, the “hERG current change (%, negative = inhibition) at 1uM” value falls from 10.9% to -1.16%.

Compared with `O=[N+]([O-])c1cc(Cl)ccc1N1CCOCC1`, `CCN(CC)S(=O)(=O)c1ccc(N2CCOCC2)c(NC(=O)C2CSC3(C)CCC(=O)N23)c1` (centres unmarked) is lower in “hERG current change (%, negative = inhibition) at 1uM” value: 32.8% for the first, -13.9% for the second.

Going from `O=C(NNC(=O)c1ccc([N+](=O)[O-])cc1Cl)c1ccncc1` to `O=C(N/N=C/C1CC=CCC1)c1cc(Br)ccc1O` (centres unmarked), the “hERG current change (%, negative = inhibition) at 1uM” value rises from -5.45% to 7.54%.

Going from `O=C(CSCc1c(Cl)cccc1Cl)Nc1ccccc1-c1ccccc1` to `NC(=O)CCN(C(=O)c1cccc(S(=O)(=O)N2CCc3ccccc32)c1)c1ccccc1`, the “hERG current change (%, negative = inhibition) at 1uM” value falls from 11.4% to 8.28%.

Compared with `O=C(NCc1nc2ccccc2[nH]1)C1CCCCC1`, `Cc1cc(C)c([C@@H]2C[C@H]3CN(C4CCCC4)C(=O)[C@]34CCCN24)c(-n2cccn2)c1` is lower in “hERG current change (%, negative = inhibition) at 1uM” value: 9.83% for the first, -71.7% for the second.

Compared with `CSC1=N/C(=C\c2ccc(C)cc2)C(=O)S1`, `Cc1cc(C)c2c(n1)sc1c(=O)n(CC(=O)c3ccccc3)cnc12` is higher in “hERG current change (%, negative = inhibition) at 1uM” value: -0.743% for the first, 6.53% for the second.

Going from `COc1ccc(Nc2nc3ccccc3n2C)cc1` to `C/C(Cl)=C/CSc1nnc2n(N)c(=O)c3ccccc3n12`, the “hERG current change (%, negative = inhibition) at 1uM” value falls from 13.1% to 4.95%.

— PMC4336329 (PLoS ONE, 2015)
